Source: the supplement of paper PMC10126150
Sequences with one replicate were seen in a single cluster, so their values are uncertain.

Test system: ATP
Test: switch fluorescence ratio, 500 uM ATP over buffer (Cy3 cluster intensity, sum of 5 cycles each) (fold (ratio)); higher = stronger signal-on switching upon ATP binding; sequences stand for … in TCGTCGGCAGCGTCAGATGTGTATAAGAGACAGTTTTTTTTTTTTTTTTTTTTTTTTT…TC
Details: aptamer strand: ATP DNA aptamer (quencher-CACCTGGGGGAGTATTGCGGAGGAAGG + anchor), 100 nM annealed; ATP concentration: 500 uM; one replicate
In short: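 The quencher-labelled ATP aptamer, at 100 nM, was annealed to Cy3-labelled switching-strand clusters on a modified Illumina MiSeq flow-cell. The clusters were imaged in selection buffer, then after 15 min with 500 uM ATP at 22 °C, and this buffer/ATP cycle ran five times with NaOH stripping and re-annealing between runs. Per-cluster fluorescence ratios, summed target-cycle over summed buffer-cycle Cy3 intensity, were averaged per switch-domain sequence. Clusters outside 100-1000 RFU were excluded.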
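Note: ATP exposure 15 min at 22 °C before imaging.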

## CAAATTGCCA
  switch fluorescence ratio: 0.98

## GAGGGGAATA
  switch fluorescence ratio: 0.97

## TTCAAGCCCG
  switch fluorescence ratio: 0.966

## GTAGGGCCGT
  switch fluorescence ratio: 1

## CCCATTGCAA
  switch fluorescence ratio: 1.88

## GCTGTAGCAT
  switch fluorescence ratio: 1.05

## CATTGGCAC
  switch fluorescence ratio: 1.09

## CATAACGGCC
  switch fluorescence ratio: 0.995

## CTTATGGCTG
  switch fluorescence ratio: 0.953

## GGGATTGAAA
  switch fluorescence ratio: 0.923

## CTGATTTGAC
  switch fluorescence ratio: 0.995

## CCCTTAAACG
  switch fluorescence ratio: 1.09

## AGAGCCCA
  switch fluorescence ratio: 0.982

## ATATACGT
  switch fluorescence ratio: 0.999

## GACGATGAGC
  switch fluorescence ratio: 1.1

## TATCTGTCTA
  switch fluorescence ratio: 0.974

## TCAAGATTCG
  switch fluorescence ratio: 0.939

## TCTTCAATTT
  switch fluorescence ratio: 1.06

## GGGAGGACGT
  switch fluorescence ratio: 1.04

## CTTACGGTTT
  switch fluorescence ratio: 1

## ACGGCATCAC
  switch fluorescence ratio: 1.3

## CGGCTCAGCG
  switch fluorescence ratio: 0.972

## GCCGAAAACG
  switch fluorescence ratio: 0.969

## TGCCAGTCAC
  switch fluorescence ratio: 1.01

## TGTCATGTGA
  switch fluorescence ratio: 1.06

## ATTACTGTTA
  switch fluorescence ratio: 1.05

## TAAGCCAGGC
  switch fluorescence ratio: 1

## TCAGTGTTTG
  switch fluorescence ratio: 0.997

## GCCTGAGTTC
  switch fluorescence ratio: 1.04

## AGAATCGTTC
  switch fluorescence ratio: 1.12

## ATATGATGAA
  switch fluorescence ratio: 0.962

## AGAACGTCAT
  switch fluorescence ratio: 1

## GTAATTTGGC
  switch fluorescence ratio: 1.01

## AAGATAGGAG
  switch fluorescence ratio: 0.968

## ACGAACAGTG
  switch fluorescence ratio: 1.17

## AGGTTCATGC
  switch fluorescence ratio: 0.942

## GTAATTCAGC
  switch fluorescence ratio: 0.969

## TATATCAAAG
  switch fluorescence ratio: 1

## CGGGATAGCT
  switch fluorescence ratio: 0.999

## GTTGTTCTTA
  switch fluorescence ratio: 0.989

## CATTTGGCTA
  switch fluorescence ratio: 1.4

## ACGGGTGCCA
  switch fluorescence ratio: 0.979

## ACAGGAGAAT
  switch fluorescence ratio: 1.04

## CACAATACGA
  switch fluorescence ratio: 4.6

## TTTAGTAGC
  switch fluorescence ratio: 0.965

## CGACTGTCGG
  switch fluorescence ratio: 0.971

## TTACGGCCCC
  switch fluorescence ratio: 1.08

## CTCGAGACGC
  switch fluorescence ratio: 1.06

## TGTCTGCTGT
  switch fluorescence ratio: 0.989

## CACGCTGACA
  switch fluorescence ratio: 1.3

## ACCTGGAAGT
  switch fluorescence ratio: 0.991

## AGAATTCGCC
  switch fluorescence ratio: 0.997

## CCACTGTTGT
  switch fluorescence ratio: 0.973

## TTTCCTTTGC
  switch fluorescence ratio: 1.31

## ACGTCATACA
  switch fluorescence ratio: 1.24

## GCACTGCGAG
  switch fluorescence ratio: 0.968

## AGTCCGAGGA
  switch fluorescence ratio: 0.959

## TTTCCACCG
  switch fluorescence ratio: 1.29

## ACGGAGATT
  switch fluorescence ratio: 1

## GAACGGGCAT
  switch fluorescence ratio: 1

## GCAGAAGTTC
  switch fluorescence ratio: 1.03

## GATAAACAAA
  switch fluorescence ratio: 1.02

## CGTCTTTTCC
  switch fluorescence ratio: 0.986

## GATTGGTGAT
  switch fluorescence ratio: 0.997

## TCGCCGTATT
  switch fluorescence ratio: 1.01

## ATCGACAGCG
  switch fluorescence ratio: 0.971

## TTAACGTTCT
  switch fluorescence ratio: 0.95

## GGTTGGGCAA
  switch fluorescence ratio: 1.21

## TTGTTGGGTG
  switch fluorescence ratio: 1.02

## ACGGGGGCCA
  switch fluorescence ratio: 0.98

## AGGGGAAATA
  switch fluorescence ratio: 5.6

## AGGTAAAAGC
  switch fluorescence ratio: 1.02

## AGACGTCCGC
  switch fluorescence ratio: 1.2

## GGGCGGATCA
  switch fluorescence ratio: 1.03

## TGGAACAGTT
  switch fluorescence ratio: 0.98

## CGAGGAGTAT
  switch fluorescence ratio: 0.983

## GTTCCAACG
  switch fluorescence ratio: 1.04

## GGTCGGGCGA
  switch fluorescence ratio: 0.822

## CGTTGTTGTC
  switch fluorescence ratio: 1.02

## CATGGCGTCT
  switch fluorescence ratio: 0.991

## TCCCTGATTT
  switch fluorescence ratio: 1.05

## ATATCAGTAG
  switch fluorescence ratio: 0.983

## CTAGTCTGTG
  switch fluorescence ratio: 1.01

## TTTATTTCCG
  switch fluorescence ratio: 0.998

## AGCCTAATCG
  switch fluorescence ratio: 0.991

## AGGGAGGGTC
  switch fluorescence ratio: 1.01

## CCAGGGAGTC
  switch fluorescence ratio: 1.03

## GGAAAGGATT
  switch fluorescence ratio: 1.07

## TTGGTCAGTT
  switch fluorescence ratio: 0.989

## CCTTCGTTCT
  switch fluorescence ratio: 1.38

## AAGCACATCA
  switch fluorescence ratio: 1.2

## GATGGAGGCA
  switch fluorescence ratio: 1.04

## TGTCAAAATA
  switch fluorescence ratio: 1.04

## CGCCAATCGA
  switch fluorescence ratio: 1.19

## GTCCTATCAG
  switch fluorescence ratio: 0.97

## GAAGCCTTAA
  switch fluorescence ratio: 1.14

## AATGCTCACT
  switch fluorescence ratio: 0.984

## AAGAGCACGG
  switch fluorescence ratio: 1.01

## CGCCTAATTA
  switch fluorescence ratio: 1.03

## GCGGTTATTC
  switch fluorescence ratio: 1.03

## GGCTGTCCTA
  switch fluorescence ratio: 0.99

## ATGGGCCTAA
  switch fluorescence ratio: 0.955

## GTTTGTCAAG
  switch fluorescence ratio: 0.998

## ACAGTTTCGA
  switch fluorescence ratio: 1.01

## GCGCGCAGGT
  switch fluorescence ratio: 1.01

## ACAAAACCGA
  switch fluorescence ratio: 1.28

## CTAAGCGTCG
  switch fluorescence ratio: 0.987

## CCTTCCAACT
  switch fluorescence ratio: 1.53

## CGCCTTTAAG
  switch fluorescence ratio: 1

## TACGAACAT
  switch fluorescence ratio: 1.39

## GCTAGAACCC
  switch fluorescence ratio: 1.06

## TACTCGCTCG
  switch fluorescence ratio: 1.02

## GCCAAGT
  switch fluorescence ratio: 0.971

## TTTAATAAT
  switch fluorescence ratio: 1.02

## TGCACTGAGT
  switch fluorescence ratio: 1.04

## GGAGGGTTCA
  switch fluorescence ratio: 1.02

## TACTGGTCGG
  switch fluorescence ratio: 0.974

## ACGATTGAAA
  switch fluorescence ratio: 1.01

## CATTCTATCT
  switch fluorescence ratio: 1.03

## TTAGGAAGCC
  switch fluorescence ratio: 1.03

## ATCTTTCCGA
  switch fluorescence ratio: 1.13

## AAGCATACC
  switch fluorescence ratio: 1.53

## CAGATCGAAT
  switch fluorescence ratio: 0.988

## TAGCGAGGCC
  switch fluorescence ratio: 1.01

## GTCGTGGCAT
  switch fluorescence ratio: 1.02

## ACTCAGATAG
  switch fluorescence ratio: 1.06

## AGATGTGTCG
  switch fluorescence ratio: 0.975

## TTTGAAACCC
  switch fluorescence ratio: 1.14

## GGTATCAACT
  switch fluorescence ratio: 1.01

## TAGATTCGCC
  switch fluorescence ratio: 0.98

## TTTTAGCGTA
  switch fluorescence ratio: 1.1

## TGAAAATTAT
  switch fluorescence ratio: 0.995

## GGCCCGATGT
  switch fluorescence ratio: 0.991

## ACGTTTCATG
  switch fluorescence ratio: 1

## ATTTAACGAT
  switch fluorescence ratio: 1.02

## CCCCTGTGGT
  switch fluorescence ratio: 1.19

## GCCTCCTGGC
  switch fluorescence ratio: 1.02

## CAGTTTTTGT
  switch fluorescence ratio: 0.98

## TGATATACTT
  switch fluorescence ratio: 1.12

## CAGACCTCTT
  switch fluorescence ratio: 1

## GCTAGCTAG
  switch fluorescence ratio: 1.01

## TGGGCGGCGT
  switch fluorescence ratio: 1.05

## ATGGGTCACT
  switch fluorescence ratio: 1.02

## TGACTTAGA
  switch fluorescence ratio: 1.03

## AGGCTCGCTG
  switch fluorescence ratio: 0.989

## CCAGCTACTA
  switch fluorescence ratio: 1.24

## CGGGTGAATA
  switch fluorescence ratio: 1.03

## GGCCTTCTGC
  switch fluorescence ratio: 1.04

## AAATACACCG
  switch fluorescence ratio: 1.03

## GGTGGTATC
  switch fluorescence ratio: 0.979

## ATTTCCACGT
  switch fluorescence ratio: 1

## AAATGCTGCT
  switch fluorescence ratio: 1.02

## GGGGAGCCCA
  switch fluorescence ratio: 0.989

## ACGGTGATTC
  switch fluorescence ratio: 1.07

## TATATAGGAC
  switch fluorescence ratio: 1.03

## GGTTCTCCG
  switch fluorescence ratio: 1.07

## TAACATGTGA
  switch fluorescence ratio: 0.989

## TTAAATGTCA
  switch fluorescence ratio: 0.958

## TTAGGTTACG
  switch fluorescence ratio: 1.03

## GGGGGAGAGT
  switch fluorescence ratio: 0.977

## TCTGTTGGAT
  switch fluorescence ratio: 0.971

## ACGCGACGTT
  switch fluorescence ratio: 1.06

## AGACAAATGT
  switch fluorescence ratio: 0.97

## ACTGTACCCC
  switch fluorescence ratio: 1.6

## ACTTTATGCC
  switch fluorescence ratio: 1.02

## CCAGGTTCAC
  switch fluorescence ratio: 0.99

## GTCCTATAGA
  switch fluorescence ratio: 0.967

## ACCACTACAG
  switch fluorescence ratio: 1.17

## GAAAGCCGTT
  switch fluorescence ratio: 0.935

## ATGATATCTG
  switch fluorescence ratio: 1.02

## AACCAAGGTG
  switch fluorescence ratio: 1.02

## TTATATGCTT
  switch fluorescence ratio: 0.995

## TGGAGTTACG
  switch fluorescence ratio: 1.01

## TCACAAGTGA
  switch fluorescence ratio: 0.997

## GGGGTGAAAC
  switch fluorescence ratio: 1.01

## CAAGGTACCG
  switch fluorescence ratio: 0.983

## ATGACCGATG
  switch fluorescence ratio: 1.01

## TCGTTCGGGC
  switch fluorescence ratio: 1.07

## CACCACTCGC
  switch fluorescence ratio: 0.983

## ACGACGCTTG
  switch fluorescence ratio: 1.44

## AGAGGAGCCA
  switch fluorescence ratio: 0.965

## TCTGCTTTTT
  switch fluorescence ratio: 1.06

## CATACGACAA
  switch fluorescence ratio: 4.61

## GCACTTGCTG
  switch fluorescence ratio: 1.01

## TAGTGGCCGG
  switch fluorescence ratio: 0.945

## GGCGTTGATA
  switch fluorescence ratio: 1

## ATGCGAATTC
  switch fluorescence ratio: 1.03

## TTAAAACCAC
  switch fluorescence ratio: 1.23

## CACTAGATAT
  switch fluorescence ratio: 1.04

## GACGCAGCGG
  switch fluorescence ratio: 1.25

## CTCGGGTATA
  switch fluorescence ratio: 0.986

## GGCGATAACC
  switch fluorescence ratio: 1.02

## TCGGAACCGA
  switch fluorescence ratio: 1.01

## TATAGCACAT
  switch fluorescence ratio: 1.13

## ATGTAGTAAA
  switch fluorescence ratio: 0.999

## CACTCGAGAT
  switch fluorescence ratio: 0.975

## AAGGAAACTA
  switch fluorescence ratio: 1.02

## AACACTTGAA
  switch fluorescence ratio: 1.02

## GACAATCGCA
  switch fluorescence ratio: 1.37

## ACCAATACAA
  switch fluorescence ratio: 1.1
